# Measured values reported in the supplement of paper PMC3334620.
# In all, about 33,000 sequences were measured (“E-score (-0.5 to 0.5)”: median about -0.021, highest 2% from about 0.32 on). This is one part of the list.
# Biological target: T1, Zap1 (UniProt P47043)
# T1 sequence: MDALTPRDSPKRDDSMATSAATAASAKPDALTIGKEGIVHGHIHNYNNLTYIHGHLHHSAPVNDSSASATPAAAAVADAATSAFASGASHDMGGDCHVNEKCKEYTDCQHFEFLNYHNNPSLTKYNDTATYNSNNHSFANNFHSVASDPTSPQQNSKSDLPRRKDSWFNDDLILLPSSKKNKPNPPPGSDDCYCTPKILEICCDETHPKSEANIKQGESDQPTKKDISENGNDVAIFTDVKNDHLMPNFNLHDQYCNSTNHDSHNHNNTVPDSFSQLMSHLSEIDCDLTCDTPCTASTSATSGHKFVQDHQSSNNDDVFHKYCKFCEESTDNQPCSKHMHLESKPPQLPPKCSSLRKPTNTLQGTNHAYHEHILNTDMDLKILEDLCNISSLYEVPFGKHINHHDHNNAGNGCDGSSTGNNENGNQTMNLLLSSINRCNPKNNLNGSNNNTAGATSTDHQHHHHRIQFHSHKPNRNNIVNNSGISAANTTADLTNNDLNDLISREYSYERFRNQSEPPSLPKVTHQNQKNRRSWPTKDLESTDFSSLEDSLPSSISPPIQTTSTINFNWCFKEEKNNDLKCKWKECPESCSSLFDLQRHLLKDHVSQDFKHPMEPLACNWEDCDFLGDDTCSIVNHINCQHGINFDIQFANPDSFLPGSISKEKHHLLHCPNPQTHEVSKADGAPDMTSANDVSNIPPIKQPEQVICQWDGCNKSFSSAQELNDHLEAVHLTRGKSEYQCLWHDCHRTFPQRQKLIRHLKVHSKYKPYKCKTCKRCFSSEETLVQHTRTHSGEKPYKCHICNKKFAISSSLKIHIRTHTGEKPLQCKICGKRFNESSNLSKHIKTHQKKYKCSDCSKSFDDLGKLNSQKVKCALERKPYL
# Assay: PBM E-score (8-mer binding enrichment) (E-score (-0.5 to 0.5)); higher = stronger / more preferred TF binding; most listed sequences are background and not binding sites
# Settings: protein concentration: 200 nM; construct: GST-full length
# Summary of the method: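 The E-score, a modified Wilcoxon-Mann-Whitney statistic, was computed by the Universal PBM Analysis Suite for every ungapped eight-base word pooled with its reverse complement. Scans behind it were normalised with masliner after bound GST-tagged yeast transcription factors were detected with fluorescent anti-GST. The proteins, at about 100-200 nM, had been applied to universal all-10-mer Agilent arrays made double-stranded by primer extension.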
row,Sequence,PBM E-score
1,CTCTATAC,-0.0596
2,ATTAGTGG,0.129
3,AAGTTAAG,-0.101
4,ACCGTTTA,0.142
5,CAATCCCC,-0.144
6,AGACCTAA,-0.017
7,TAATACGA,0.0734
8,TCTAGAAA,0.126
9,AAATACAG,0.175
10,GGACTCCC,-0.263
11,GATATGAC,-0.101
12,AATGTGGT,0.184
13,CGGACTCA,-0.0196
14,AATAACCC,0.466
15,TAACAAGA,0.0572
16,AATTCGCT,0.0676
17,ATGCAGTG,-0.0561
18,AGCGTGAG,-0.102
19,ACCTTCCA,0.186
20,AGGGCTTA,-0.176
21,ACGACCTA,0.207
22,ACGGCTGA,-0.13
23,AATCCTCC,-0.255
24,CCTTCTTC,-0.134
25,AGCGACAC,-0.0151

row,Sequence,PBM E-score
1,AACTGTCG,-0.142
2,CTATCTCC,-0.246
3,AGCCGACA,-0.131
4,TGAACGCA,0.0956
5,CGGTGATC,0.0109
6,AATCTTCG,0.0708
7,CAAGATAC,0.0232
8,CAGGTGGG,-0.0919
9,ATAAGCAT,-0.148
10,ATGTATAA,0.0262
11,ATGGAAGA,-0.0883
12,AAGCGATG,-0.131
13,TGGGCCAA,-0.124
14,GAAAACAA,0.19
15,GGAGATTA,-0.13
16,ATGTGGGC,-0.0665
17,CATTACGC,-0.0497
18,CGATAGGA,-0.0122
19,ACGGACGG,-0.0811
20,CACAGCTA,-0.186
21,AATCCCAC,0.0121
22,GCTCCAGA,-0.107
23,CCCCAGCC,0.0327
24,CGTCGCCC,-0.148
25,GAAGGGTA,0.421

row,Sequence,PBM E-score
1,GCCATGCC,-0.172
2,GCATTGGA,-0.174
3,ATACTAAT,0.0981
4,CATAATAC,0.151
5,TCAAAGAA,0.0332
6,CAGATATG,-0.147
7,ATTCTAGC,-0.0432
8,GTGGGTTA,0.404
9,AGGCTCAC,-0.25
10,ATACTTCG,-0.172
11,GACCCCCC,-0.236
12,CTTCGGAA,-0.0238
13,CACTTAAA,0.0388
14,AGCATTTC,-0.0474
15,TAAAAGCA,0.00902
16,AGAATAAT,0.0143
17,TCTTGGAA,0.089
18,AGGCCACC,0.0176
19,AAGCGCCG,-0.139
20,CCAACAAC,0.129
21,GATCTTGA,0.138
22,GGACGAAA,0.18
23,AAAGTTGA,-0.134
24,CCTCTACA,0.107
25,ATGTTTGG,0.0491

row,Sequence,PBM E-score
1,TAACAATA,0.198
2,CAGTGTAC,-0.0583
3,CACAACTA,0.247
4,ATGGTTGA,0.0307
5,ACGGCCAC,0.0282
6,AATTCAGG,0.0483
7,CGCGTGGC,-0.068
8,CTCACAAA,0.0579
9,AATCAATG,0.0703
10,GGTGCTAA,0.00201
11,GTGTGAGA,-0.0418
12,AATCTACG,-0.128
13,AATGTTAG,-0.0444
14,CACAAGCG,-0.025
15,GCTCCTGA,-0.103
16,GAGAGAAC,-0.0702
17,CGCAGGGC,-0.114
18,ACTGGAAT,0.0754
19,CGGTTGCC,0.0909
20,TATCTTCA,0.0584
21,CGGAATAG,0.113
22,TAACAGAA,0.177
23,TTAGCCAA,0.0203
24,CGCACCCC,-0.0569
25,CGTAACGA,-0.081

row,Sequence,PBM E-score
1,CCGGGTAG,0.102
2,CGTTCGCA,-0.0203
3,ACTGCGGC,-0.152
4,GCTGGGAA,0.0508
5,ATCTCTCA,0.0115
6,TAAGTGTA,0.0581
7,CTCCCAGC,-0.382
8,CCTTTATC,0.121
9,TAAGGATA,-0.0281
10,ATTATTCA,0.199
11,CATTTTGA,0.137
12,CGACCCCG,0.283
13,CGCTTAAA,0.053
14,AGACTACG,-0.162
15,GAGGCTCA,-0.244
16,AAATATAG,0.0329
17,GCATACAC,-0.144
18,CGAGTCTC,-0.176
19,CGACCTAA,0.18
20,GTTTATAA,0.191
21,CAAGATTG,-0.121
22,CCTGCAGG,0.195
23,CATAGTCA,0.00578
24,ACCCGTGC,0.161
25,ATAACTAC,0.287

row,Sequence,PBM E-score
1,AGAAGAGG,0.068
2,CACCCCTC,0.239
3,ATCGGTTA,0.309
4,GCCACCGC,0.0231
5,GAAGAAAA,-0.0414
6,CTTTATTC,0.0612
7,CCCTGGCC,-0.00617
8,CATAGGAC,-0.0439
9,CAGAACGA,0.0684
10,AGATCGCC,-0.109
11,ATCCTAGC,-0.143
12,GGGGAAAA,-0.145
13,AGAAACCA,0.212
14,GTTCTACA,-0.0926
15,CGGCTGCA,-0.0688
16,CCCATACA,0.0957
17,ACCTAAAC,0.189
18,ATGCCTGG,-0.191
19,GCTACGTA,-0.002
20,ACTTGCAT,-0.0793
21,ACAGCGGG,-0.176
22,ATTGCAGC,-0.168
23,ACAGTTAG,-0.0431
24,AGAGTGTG,-0.0409
25,ACACATAG,-0.0884

row,Sequence,PBM E-score
1,GACTCGTA,-0.0232
2,CTTTACGC,-0.0324
3,CAATCCAG,-0.0505
4,CACTATGG,-0.16
5,CAAAGCGG,0.088
6,AGCGTCAT,0.0506
7,CGCAACTA,0.162
8,TCTGACAA,0.0265
9,CCGTTCCA,-0.114
10,AGCTATTA,-0.0963
11,GAGCCTAA,-0.117
12,ATAATTCA,0.165
13,GAAGGCGC,-0.32
14,CAAGAACC,0.307
15,TGCCGTAA,-0.0417
16,CGTTAACG,0.0895
17,AAAGACCG,0.133
18,GAAACTGA,-0.152
19,CCGACCTA,-0.0342
20,GCACTCCC,-0.211
21,ATCGAGAT,-0.23
22,CGCCTTGA,-0.0574
